80 compounds from ChEMBL document CHEMBL1201862, “PubChem BioAssay data set” (2004) can be followed below.

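Where inhibition never reached the appropriate level, the endpoint shown equals the highest concentration tested. Otherwise, values were interpolated linearly from a five-concentration, 48-hour dose response in 96-well plates. Abbreviation: GI50, concentration required for 50% inhibition of growth.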 The source made the active and inactive calls. Cut-off read from the data, not from the text of the source: active = GI50 up to about 1.1 µM and inactive = higher. Some results are limits rather than exact numbers.

In this assay the test system is NCI-H322M. In words: NCI-60 cell line screen, 48 h.
With `Nc1ccc2nc(-c3cccc(C(F)(F)F)c3)cc(O)c2c1`, the GI50 was inactive: 40.6 µM.

Consider `O=C(Oc1ccc2c(c1)CN(Cc1ccccc1)CO2)c1ccccc1`, for which the GI50 is inactive: 18.3 µM. Consider `COc1cccc(CSCC(=O)O)c1`, for which the GI50 was inactive: > 100 µM. Turning to `c1coc(C2=Nc3cccc4cccc(c34)N2)c1`, the GI50 is inactive: 94.2 µM. With `COC(=O)C(=O)C(C(=O)C(=O)Nc1cccc(C(C)=O)c1)c1nc2ccccc2nc1O` (stereo not given) the figure was inactive: > 100 µM; with `c1cc2c(cc1C(N1CCNCC1)N1CCNCC1)OCO2`, inactive: > 100 µM; with `O=C1NC(=S)N/C1=C\c1ccc(Br)s1`, inactive: > 100 µM. `OC1CC(O)c2c(Cl)sc(Cl)c21` (stereo not given): the GI50 was inactive: 30.4 µM. For the compound `COc1ccc(-n2c(C)nc3ccc(NC4OCC(O)C(O)C4O)cc3c2=O)cc1` (stereo not given), the GI50 is inactive: > 100 µM. With `O=C1CS(=O)(=O)C(c2cccc(Oc3ccccc3)c2)N1c1cccc(Cl)c1` (stereo not given) the figure was inactive: 44.7 µM; with `COc1c(-c2nc3ccc(N4CCN(C)CC4)nc3[nH]2)cc(OC)c2[nH]c(COC(C)=O)nc12`, inactive: 23.6 µM. With `Cc1c(C#N)c(N)n(C2OC(CO)C(O)C(O)C2O)c(=S)c1C#N` (stereo not given) the figure was inactive: > 100 µM; with `CN(C)C1COC2Cc3ccccc3C1O2` (stereo not given), inactive: > 100 µM; with `Cc1ccc(O)c(-c2csc(NCN3CCN(CNc4nc(-c5cc(C)ccc5O)cs4)CC3)n2)c1`, inactive: > 100 µM. Regarding `CN(C(=N)c1ccccc1)c1ccccc1`, the GI50 was inactive: > 100 µM. For the compound `C#CCN(C(=O)C(F)(F)F)c1ccc(C(=O)c2ccc(N(CC#C)C(=O)C(F)(F)F)cc2)cc1`, the GI50 is inactive: 38.7 µM. With `O=C1NC(N2CCOCC2)=N/C1=C\c1ccccc1O` the figure was inactive: > 100 µM; with `COc1ccc2[nH]c3c(C)c4ccnc(NCCCN(C)CCCNc5ccc6ncn7c8ccccc8c(=O)c5c67)c4c(C)c3c2c1`, active: 0.454 µM; with `CCOC(=O)c1cc(/C=C/C(C)=C/C(=O)OC)oc1C`, inactive: > 100 µM.

In the case of `Cn1cc(NC(=O)c2cc(NC(=O)CCCCCCCCCC(=O)Nc3cc(C(=O)Nc4cc(C(=O)NCCC(=N)N)n(C)c4)n(C)c3)cn2C)cc1C(=O)NCCC(=N)N`, the GI50 is inactive: 20.1 µM. With `N#CC(NC12CC3CC(CC(C3)C1)C2)c1ccc2c(c1)OCO2` (stereo not given) the figure was inactive: > 100 µM; with `Cc1ccc(-c2c(C#N)c(-c3ccc(Cl)cc3)c(C#N)c(=O)n2NS(=O)(=O)c2ccc(C)cc2)cc1`, inactive: 29.4 µM.

Turning to `S=c1[nH]nc(COc2ccc3c(c2)CCCC3)n1/N=C/c1ccc(Cl)cc1`, the GI50 is inactive: 20.4 µM. As to `CCc1cc(CCC(=O)Nc2ccccc2[N+](=O)[O-])nc(S)n1`, the GI50 was inactive: > 100 µM. With `O=C1CC2CCN(C(=O)c3ccccc3)CC2CCN1` (stereo not given), the GI50 is inactive: > 100 µM. With `CC(=O)NCc1c(C(N)=O)ncn1Cc1ccccc1` the figure was inactive: > 100 µM; with `N#CCCN(CCC#N)C(=O)c1cccc(C(=O)N(CCC#N)CCC#N)c1`, inactive: > 100 µM; with `O=C(CCCCCCCCC(=O)OCC1OC(n2cnc3c(=O)[nH]cnc32)C(O)C1O)OCC1OC(n2cnc3c(=O)[nH]cnc32)C(O)C1O` (stereo not given), inactive: > 100 µM.

On to `COc1ccc(NC(=O)C2C(=O)N(c3ccc(OC)cc3)C(=O)/C2=N\N)cc1` (stereo not given), for which the GI50 was inactive: > 100 µM. With `COc1ccc(NC(=O)/C(=N/O)C(C)=O)cc1`, the GI50 is inactive: > 100 µM. With `Fc1ccc2c(c1)nc1n2C(c2c(Cl)cccc2Cl)SC1` (stereo not given), the GI50 is inactive: 20.3 µM.

Take `CSC1=Nc2ccccc2-c2nc3ccccc3cc2C1`: the GI50 is inactive: > 100 µM.

Turning to `COc1cc(OC)c(NC2=NCCO2)cc1Cl`, the GI50 is inactive: 54.7 µM.

Take `CC(=O)O[C@@H]1[C@H](C(C)C)[C@@H](OC(C)=O)C/C(C)=C/CC[C@]2(C)O[C@@H]12`: the GI50 is inactive: > 100 µM. With `CN(C)c1ccc(C2CC(c3ccc4ccccc4c3O)=NN2)cc1` (stereo not given) the figure was inactive: 35.3 µM; with `CCOP(=O)(OCC)/C(C#N)=C/c1ccc(-c2ccc(F)cc2F)o1`, inactive: 17.9 µM; with `O=c1c2ccccc2n2c(-c3ccc(O)cc3)nnc2n1-c1ccccc1`, inactive: 25.2 µM.

`CCOC(=O)c1cc(I)c(-c2cc(C)no2)n1C`: the GI50 was inactive: > 100 µM. With `CCNC(=S)N/N=C/c1cc([N+](=O)[O-])ccc1O` the figure was inactive: 51.5 µM; with `COC1=C(C)C(=O)C2=C(C1=O)C1C3CC4=C(C(=O)C(OC)=C(C)C4=O)C(CNC(=O)C(C)O)N3C(C#N)C(C2)N1C` (stereo not given), active: 0.0348 µM. As to `COc1ccc(/C=C2\OC(=O)C(Cl)=C2c2ccc(OC)c(Cl)c2)cc1`, the GI50 was inactive: 39.8 µM. Take `CCOC(=O)c1ccc(NCc2ccc3nc(OC)c(OC)nc3c2)cc1`: the GI50 was inactive: > 100 µM. For the compound `CC1=CC[C@@]2(C)CC[C@](O)(C(C)C)C2C(OC(=O)c2ccccc2)C1` (stereo not given in full), the GI50 was inactive: 18.5 µM.

Turning to `CN1C(=O)c2ccc3ccccc3c2C1=O`, the GI50 is inactive: > 100 µM.

Turning to `O=C(CSc1nc2ccc(I)cc2c(=O)n1Cc1ccccc1)NNC(=O)c1ccccc1`, the GI50 is inactive: 11.3 µM. With `N#CC12Cc3ccc4c(c3-c3cccc(c31)CCN2C(=O)c1ccccc1)OCO4` (stereo not given) the figure was inactive: > 100 µM; with `O=S(=O)(NC1OCCCC1I)c1ccccc1` (stereo not given), inactive: > 100 µM. Take `Cn1c(-c2ccc[se]2)ccc1-c1ccc(CO)[se]1`: the GI50 is inactive: 39.7 µM. With `C=C1CCCC2[C@](C)(CC3=C(Cl)C(=O)C=C(OC)C3=O)C(C)CC[C@]12C` (stereo not given in full) the figure was inactive: 8.99 µM. With `CC(=O)OCC1OC(n2c(C)c(C(C)=O)c(-c3cccc4ccccc34)c(C#N)c2=S)C(OC(C)=O)C(OC(C)=O)C1OC(C)=O` (stereo not given) the figure was inactive: > 100 µM. With `COc1cc2c(c(OC)c1)C1(CC(CC#N)C2)SCCS1` (stereo not given) the figure was inactive: > 100 µM; with `C=CCNC(=S)N1CC(C)C(=O)Nc2cc(Cl)ccc21` (stereo not given), inactive: > 100 µM; with `Cc1ccccc1C(=O)c1ccccc1O`, inactive: > 100 µM.

For the compound `C/C=C(\C)[C@@H](O)C(=O)O[C@@H]1CC(C(C)(C)O)[C@](C)(CCC(=O)OC)[C@H]2[C@H](OC(=O)[C@H](O)[C@H](C)CC)C[C@]3(C)C(=CC[C@H]3[C@H]3CO[C@H](C=C(C)C)C3)[C@]12C` (stereo not given in full), the GI50 was inactive: 34.4 µM. Turning to `COc1cc2nc3c(=C(C#N)C#N)c4ccccc4n3c(=O)c2cc1OC`, the GI50 is inactive: > 100 µM. With `CC(=O)Nc1ccc(S(=O)(=O)N/N=C/CN2C(=O)c3ccccc3C2=O)cc1` the figure was inactive: > 100 µM; with `CC(=O)N1N=C(c2ccc3ccccc3c2O)CC1c1ccc(Cl)cc1Cl` (stereo not given), inactive: 46.8 µM; with `CC(N)Cc1ccc(C(=O)Cl)cc1` (stereo not given), inactive: > 100 µM.

As to `Cc1ccc(S(=O)(=O)N2CCCN(S(=O)(=O)c3ccc(C)cc3)CCN(S(=O)(=O)c3ccc(C)cc3)CCCSCC2)cc1`, the GI50 is inactive: > 100 µM. With `CC1SC2=NC3=C(c4ccccc4C3=O)C(c3ccc(F)cc3)N2C1=O` (stereo not given) the figure was inactive: > 100 µM; with `C#Cc1cc(Br)c(OC(=O)C(C)(C)C)c(-c2cc(C#C)cc(Br)c2OC(=O)C(C)(C)C)c1`, inactive: 31.1 µM; with `CN(C)CCNC(=O)c1ccc(Cl)c2ccc(-c3ccccc3)nc12`, inactive: 3.14 µM. As to `COC(=O)Cc1c([C@@H]2Nc3ccccc3[C@H]2CC(=O)OC)[nH]c2ccccc12`, the GI50 was inactive: > 100 µM.

Turning to `Oc1ccc2cc(Br)ccc2c1-c1c(O)ccc2ccc(Br)cc12`, the GI50 was inactive: 13.6 µM. With `CC(C)C1COC(c2ccc3ccccc3c2-c2c(O[Si](C)(C)C(C)(C)C)ccc3ccccc23)=N1` (stereo not given) the figure was inactive: 17.1 µM; with `CN(C)c1ccc(/N=C2/NC(=N\c3ccccc3)/C(=N/c3ccccc3)S2)cc1`, inactive: 58.2 µM; with `Cc1c2ccncc2cc2c1sc1ccncc12`, inactive: 3.47 µM. With `CC1C2CC(CC(=O)N2)C1(C)C` (stereo not given), the GI50 was inactive: > 100 µM. With `COC(=O)C(/C(=N\O)C(=O)Nc1cccc(Cl)c1C)c1cnc2ccccc2n1` (stereo not given) the figure was inactive: > 100 µM; with `CC(C)c1ccccc1NC(=O)C(=O)Cc1nc2ccccc2s1`, inactive: > 100 µM. For `COc1cc(OC)cc(-n2c(N)c(-c3nc4ccccc4n3C)c3ccc([N+](=O)[O-])cc3c2=O)c1`, the GI50 is inactive: 73.3 µM. With `O=S(=O)(O)c1ccc(/N=N\c2ccc(/N=N/c3ccc(/C=C/c4ccc(/N=[N+](\[O-])c5ccc(/C=C/c6ccc(/N=N/c7ccc(/N=N/c8ccc(S(=O)(=O)O)cc8)c8ccccc78)cc6S(=O)(=O)O)c(S(=O)(=O)O)c5)cc4S(=O)(=O)O)c(S(=O)(=O)O)c3)c3ccccc23)cc1` the figure was inactive: > 77.8 µM. With `O=C(O)C(F)(F)C(F)(F)C(F)(F)C(F)(F)C(=O)O` the figure was inactive: > 100 µM; with `C[N+](C)(C)/C=N\c1cccc2nsnc12`, inactive: > 100 µM. With `CC1(C)[C@@H]2C[C@H]1C(Cc1cccc(C[C@H]3c4cc(-c5ccccn5)ncc4[C@H]4C[C@@H]3C4(C)C)c1)c1cc(-c3ccccn3)ncc12` (stereo not given in full) the figure was active: 0.701 µM; with `CC(=O)OC12CC(C)C3(O)C4C=C(C)C(=O)[C@@]4(O)CC(CO)=C[C@H]3C1C2(C)C` (stereo not given in full), inactive: > 10 µM; with `COc1cc(/C=C2\CCc3ccccc3C2=O)cc(OC)c1OC`, inactive: 17.6 µM. Consider `BrC(Br)([P+](c1ccccc1)(c1ccccc1)c1ccccc1)[P+](c1ccccc1)(c1ccccc1)c1ccccc1`, for which the GI50 is inactive: 58.1 µM. With `C[N+]1(CCCl)CC[N+](C)(CCCl)CC1` (stereo not given) the figure was inactive: > 100 µM; with `CN(C)Cc1cc(/C=C/C(=O)c2ccc(Br)cc2)cc(CN(C)C)c1O`, inactive: 24.2 µM.
